For one assay, the system named is HSkMC. The experiment in a line: cytotoxicity call (relative viability < 0.9). The settings on record: 10 µM.
The test system of the next assay is HepG2. The experiment in a line: cytotoxicity call (relative viability < 0.9). The settings on record: 10 µM.
For the next assay, the system named is S. aureus RN4220. The experiment in a line: growth inhibition call (relative growth <= 0.2). The settings on record: 50 µM.

Some of the results follow.

With `C[C@@H]1CN([C@@H](C)CO)C(=O)c2cc(C#C[C@@H](C)O)cnc2O[C@@H]1CN(C)Cc1cncnc1`, the cytotoxicity call in the assay on HSkMC and with HepG2 was “inactive” in each case. Further, the growth inhibition call with S. aureus RN4220 is “inactive”.
`C[C@@H]1CCCCO[C@H](CN(C)Cc2ccc(C(=O)O)cc2)[C@H](C)CN([C@H](C)CO)C(=O)c2cc(NC(=O)Nc3ccc(F)cc3)ccc2O1`: the cytotoxicity call with HSkMC and in the assay on HepG2 was “inactive” each time. Besides, the growth inhibition call with S. aureus RN4220 was “inactive”.
With `CCN(CC)CCN(Cc1ccc(-c2ccc(C(F)(F)F)cc2)cc1)C(=O)Cn1c(SCc2ccc(F)cc2)nc(=O)c2c1CCC2`, the cytotoxicity call with HSkMC and in the assay on HepG2 was “active” in each case. Besides, in the assay with S. aureus RN4220, the growth inhibition call is “inactive”.
As for `COc1cc2c(=O)c(-c3ccc4c(c3)OCO4)coc2c2c1OC(C)(C)C=C2`, the cytotoxicity call in the assay with HSkMC was “inactive”. Besides, the cytotoxicity call in the assay with HepG2 is “active”. Further, the growth inhibition call in the assay with S. aureus RN4220 was “inactive”.
For the compound `Cc1ccc(C(=O)N2CCC(n3cc(C(C)(C)N)nn3)CC2)c(C)c1`, the cytotoxicity call with HSkMC and in the assay on HepG2 was “inactive” throughout. The growth inhibition call with S. aureus RN4220 is “inactive”.
Turning to `C[C@@H]1CN([C@@H](C)CO)C(=O)c2c(c3ccccc3n2C)-c2ccccc2CO[C@@H]1CN(C)Cc1cccc(C(=O)O)c1`, the cytotoxicity call with HSkMC and in the assay on HepG2 was “inactive” in each case. For the same compound, the growth inhibition call in the assay on S. aureus RN4220 is “inactive”.
Take `Cc1noc(C)c1NC(=O)Nc1ccc2c(c1)C(=O)N([C@@H](C)CO)C[C@@H](C)[C@H](CN(C)Cc1ccc(C(F)(F)F)cc1)O2`: the cytotoxicity call in the assay with HSkMC and in the assay on HepG2 was “inactive” each time. For the same compound, the growth inhibition call with S. aureus RN4220 is “inactive”.
`C[C@H](CO)N1C[C@H](C)[C@H](CN(C)Cc2ccc(C(F)(F)F)cc2)Oc2ccc(NS(C)(=O)=O)cc2CC1=O`: the cytotoxicity call with HSkMC and in the assay with HepG2 was “inactive” in each case. Also, in the assay with S. aureus RN4220, the growth inhibition call was “inactive”.
With `C[C@H](CO)N1C[C@H](C)[C@@H](CN(C)S(=O)(=O)c2ccc3c(c2)OCCCO3)OCc2cnnn2CCCC1=O`, the cytotoxicity call in the assay on HSkMC and with HepG2 was “inactive” throughout. Also, the growth inhibition call in the assay on S. aureus RN4220 was “inactive”.
Turning to `COc1ccc([Si](C)(C)[C@@H]2[C@@H](CCO)O[C@]3(C(=O)N(Cc4ccc(N(C=O)c5ccccc5)cc4)c4ccccc43)[C@H]2C)cc1`, the cytotoxicity call in the assay on HSkMC was “inactive”. Moreover, the cytotoxicity call in the assay with HepG2 was “active”. The growth inhibition call with S. aureus RN4220 is “inactive”.
With `COc1ccc2c3c([nH]c2c1)[C@H](CO)N(C[C@]13CCN(CC1)S(=O)(=O)c1cn(cn1)C)C(=O)Nc1ccc(cc1)F`, the cytotoxicity call in the assay with HSkMC and in the assay on HepG2 was “inactive” in each case. In addition, the growth inhibition call with S. aureus RN4220 was “inactive”.
As for `CN(C)CC(=O)N[C@@H]1CC[C@H](CC(=O)NCCN2CCCCC2)O[C@H]1CO`, the cytotoxicity call with HSkMC and in the assay with HepG2 was “inactive” throughout. For the same compound, in the assay on S. aureus RN4220, the growth inhibition call is “inactive”.
For `O=C1CCN(c2ccccc2)N1`, the cytotoxicity call with HSkMC and with HepG2 was “inactive” in each case. In addition, the growth inhibition call in the assay with S. aureus RN4220 is “inactive”.
Turning to `C[C@H]1CN([C@@H](C)CO)C(=O)c2cc(-c3ccncc3)cnc2O[C@H]1CN(C)S(=O)(=O)c1ccc(F)cc1`, the cytotoxicity call in the assay with HSkMC and in the assay with HepG2 was “inactive” each time. Also, in the assay on S. aureus RN4220, the growth inhibition call is “inactive”.
Regarding `CCC(C)C(N)C(=O)O` (centres undefined), the cytotoxicity call in the assay on HSkMC and with HepG2 was “inactive” throughout. For the same compound, in the assay with S. aureus RN4220, the growth inhibition call is “inactive”.
Consider `C[C@H](CO)N1C[C@H](C)[C@H](CN(C)Cc2ccccc2)Oc2c(NC(=O)c3cnccn3)cccc2C1=O`, for which the cytotoxicity call in the assay on HSkMC and in the assay on HepG2 was “inactive” throughout. Moreover, the growth inhibition call in the assay with S. aureus RN4220 was “inactive”.
Regarding `C[C@H]1CN([C@@H](C)CO)C(=O)Cc2cc(NC(=O)CCN3CCOCC3)ccc2O[C@@H]1CN(C)Cc1ccc(C(=O)O)cc1`, the cytotoxicity call in the assay with HSkMC and with HepG2 was “inactive” each time. For the same compound, the growth inhibition call with S. aureus RN4220 was “inactive”.
For `C[C@@H]1CN([C@H](C)CO)C(=O)CCCn2cc(nn2)CO[C@@H]1CN(C)C(=O)c1cc(-c2ccccc2)on1`, the cytotoxicity call with HSkMC and with HepG2 was “inactive” in each case. Besides, the growth inhibition call in the assay with S. aureus RN4220 is “inactive”.
For `C[C@H]1CN([C@@H](C)CO)C(=O)c2cc(NS(C)(=O)=O)ccc2O[C@@H]1CN(C)S(=O)(=O)c1ccc(Cl)cc1`, the cytotoxicity call in the assay on HSkMC is “inactive”. In the assay on HepG2, the cytotoxicity call is “active”. In the assay with S. aureus RN4220, the growth inhibition call was “inactive”.
In the case of `C[C@@H]1CN([C@H](C)CO)C(=O)c2cccc(NC(=O)Nc3ccc(F)cc3)c2O[C@H]1CN(C)C(=O)Nc1ccc(C(F)(F)F)cc1`, the cytotoxicity call in the assay with HSkMC and in the assay on HepG2 was “inactive” each time. Further, the growth inhibition call in the assay with S. aureus RN4220 is “inactive”.
As for `C[C@@H]1CN([C@H](C)CO)C(=O)c2cccc(NC(=O)CCCCCC(=O)Nc3ccccc3N)c2O[C@@H]1CN(C)C(=O)Nc1ccc(C(F)(F)F)cc1`, the cytotoxicity call in the assay with HSkMC and with HepG2 was “inactive” in each case. The growth inhibition call in the assay with S. aureus RN4220 was “inactive”.
`Cn1ncc(Br)c1C(=O)NN`: the cytotoxicity call with HSkMC and in the assay with HepG2 was “inactive” throughout. Besides, in the assay with S. aureus RN4220, the growth inhibition call was “inactive”.
`C[C@@H](O)[C@H]1C(=O)N2C(C(=O)O)=C(SCCNC=N)C[C@H]12`: the cytotoxicity call in the assay with HSkMC and in the assay on HepG2 was “inactive” throughout. The growth inhibition call in the assay on S. aureus RN4220 is “inactive”.
Turning to `C[C@H](CO)N1C[C@H](C)[C@H](CN(C)S(=O)(=O)c2ccc(C#N)cc2)Oc2ncc(-c3cccc(F)c3)cc2C1=O`, the cytotoxicity call in the assay with HSkMC and in the assay with HepG2 was “inactive” in each case. In addition, the growth inhibition call in the assay on S. aureus RN4220 is “inactive”.
Consider `Cc1ccc(Cl)c(Nc2ccccc2C(=O)[O-])c1Cl.[Na+]`, for which the cytotoxicity call with HSkMC and with HepG2 was “inactive” throughout. In the assay on S. aureus RN4220, the growth inhibition call was “inactive”.
For the compound `C[C@@H]1CCCCO[C@H](CN(C)C(=O)C2CCCCC2)[C@H](C)CN([C@H](C)CO)C(=O)c2cc(NC(=O)c3ccncc3)ccc2O1`, the cytotoxicity call in the assay on HSkMC and in the assay with HepG2 was “inactive” each time. The growth inhibition call in the assay on S. aureus RN4220 was “inactive”.
Turning to `C[C@@H]1CN([C@@H](C)CO)C(=O)c2cccc(NC(=O)Nc3ccc(F)cc3)c2O[C@H]1CN(C)Cc1ccc(C(F)(F)F)cc1`, the cytotoxicity call in the assay on HSkMC and in the assay with HepG2 was “inactive” in each case. Also, in the assay with S. aureus RN4220, the growth inhibition call was “inactive”.
Turning to `CCN1CCCC1CNC(=O)c1cc(S(=O)(=O)CC)c(N)cc1OC` (centres undefined), in the assay on HSkMC (human skeletal muscle cells), the cytotoxicity call was “inactive”. Besides, in the assay on HepG2, the cytotoxicity call was “active”. The growth inhibition call in the assay with S. aureus RN4220 was “inactive”.

The record behind these values is the antibiotic and cytotoxicity screens of Wong et al. (2023).
